# Measured values taken from PubChem BioAssay (Tox21).
# Inconclusive means that the source gave no clear call. Such entries were picked first, then a sample of the others. A potency beside an inconclusive call is a rough fit, not a confirmed value. Some structures have more than one record in an assay (separate samples or runs), and their calls can disagree. The source made the active and inactive calls. Calls come from the whole dose curve; as a rule, active = well fitted activation curve with a large enough effect in the repeat runs; inconclusive = weak or mixed curves; inactive = flat fitted curve, though single readings scatter.
# Assay: A CellTox Green Cytotoxicity Assay to monitor cytotoxicity in HepG2 cells - 32 hour (AID 1224883); note: nearly all actives have a fitted effect of over 50% in size
# Conditions: CellTox Green fluorescence; series mostly up to 76.8 µM
# Method in brief: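 Cells and non-lytic dye reagent are dispensed together (600 HepG2 cells/well) and incubated 5 h before DMSO compound transfer. Kinetic fluorescence is then recorded in the same wells during 40 h at 37 C.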
# % is set by controls: 0 for no effect and ±100 for the full control effect; potency is the fitted concentration of half-maximal effect; tags give direction and shape of the fitted curve.
SMILES,Potency,cytotoxicity increase
Oc1cc2c(cc1O)[C@H]1c3ccc(O)c(O)c3OC[C@@]1(O)C2,"inconclusive: 55.6 µM [activator, single point]",
Nc1ncnc2nc[nH]c12,"inconclusive: 21.9 µM [activator, single point]",
CCCCCCCCC(CCCCCC)C(=O)O (configuration not stated),active: 61.6 µM,
O=C(O)Cc1cn(-c2ccccc2)nc1-c1ccc(Cl)cc1,inactive,
CC(C)(C)c1cc(Cc2cc(C(C)(C)C)c(O)c(C(C)(C)C)c2)cc(C(C)(C)C)c1O,"inconclusive: 5.49 µM [activator, single point]",
Cc1ccc(Cl)c(N)c1Cl,"inconclusive: 54.9 µM [activator, single point]",
CCN1CCN(c2cc(-c3ccc(F)cc3)c3c(n2)CCCCCC3)CC1,,inactive: 34% [at 15.8 µM]
Cc1cccc(OCCOc2cccc(C)c2)c1,"inconclusive: 58.3 µM [activator, single point]",
NNCCc1ccccc1,"inconclusive: 21.9 µM [activator, single point]",
Cc1cc(C)c(N)cc1C,inactive,
CC(C)c1cccc(C(C)C)c1N,"inconclusive: 49 µM [activator, single point]",
CCCCCCCCCCCCCCCC,inactive,
c1ccc2sc(SN3CCOCC3)nc2c1,inactive,
Cc1c[nH]c(=S)[nH]c1=O,inactive,
CN1CC[C@H](c2c(O)cc(O)c3c(=O)cc(-c4ccccc4Cl)oc23)[C@H](O)C1,active: 0.213 µM,
Clc1ccnc(Cl)n1,inactive,
C[C@H]1C[C@H](O)c2ccsc2S1(=O)=O,inactive,
CC(=O)C(C)=O,"inconclusive: 22 µM [activator, single point]",
Cc1ccc(C(C)C)c(O)c1,"inconclusive: 54.9 µM [activator, single point]",
COc1c(Br)cc(Br)c(C)c1Br,"inconclusive: 61.6 µM [activator, single point]",

SMILES,Potency,cytotoxicity increase
O=[Se](O)O,active: 24.6 µM,inactive: 9.15% [at 15.8 µM]
Oc1ccc(Cl)c2cccnc12,"inconclusive: 3.38 µM [activator, full curve, poor fit]",
[Na+],"inconclusive: 49 µM [activator, single point]",
O[C@@H]1CO[C@H]2[C@@H]1OC[C@@H]2O,inactive,
CC(N)=O,inactive,
CC(C)(C)c1ccc(CCC=O)cc1,"inconclusive: 49 µM [activator, partial curve, poor fit]",
CCOC(=O)C(F)(F)F,inactive,
O=C1NC(=O)c2ccccc21,inactive,
c1cc(OCC2CO2)cc(OCC2CO2)c1 (configuration not stated),"inconclusive: 54.5 µM [activator, single point]",
CS(=O)(=O)OCCCCOS(C)(=O)=O,inactive,
Nc1nc(N)nc(-c2ccccc2)n1,inactive,
NC(=O)C(=O)N/N=C/c1ccc([N+](=O)[O-])o1,"inconclusive: 23.9 µM [activator, partial curve, poor fit]",
CCO[Si](CC(C)C)(OCC)OCC,"inconclusive: 61.6 µM [activator, partial curve, poor fit]",
O=C(O)CCC(=O)C(=O)O,inactive,
CN1CCC[C@H]1c1cccnc1,inactive,
CCC(=O)/C=C/C1C(C)=CCCC1(C)C (configuration not stated),"inconclusive: 54.9 µM [activator, single point]",
CC1CCCC(=O)C1=O (configuration not stated),"inconclusive: 24.5 µM [activator, full curve, poor fit]",
N[C@@H](C(=O)N[C@@H]1C(=O)N2C(C(=O)O)=C(Cl)CS[C@H]12)c1ccccc1,,inactive: -17.5% [at 6.97 µM]
CCCCC[C@H](O)/C=C/[C@H]1[C@H](O)CC(=O)[C@@H]1C/C=C\CCCC(=O)O,inactive,
O=C(O)CCCCCCCC(=O)O,"inconclusive: 21.9 µM [activator, single point]",

# Assay: A CellTox Green Cytotoxicity Assay to monitor cytotoxicity in HEK293 cells - 8 hour (AID 1224884); note: nearly all actives have a fitted effect of over 35% in size
# Conditions: CellTox Green fluorescence; series mostly up to 76.8 µM
# Method in brief: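 Cells (HEK293, 600/well) and dye reagent are dispensed together. After 5 h at 37 C, 23 nL compound is pinned in. Plates stay at 37 C for 40 h with fluorescence read at 0h, 8h, 16h, 24h, 32h and 40h.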
row,SMILES,Potency
1,Oc1cc2c(cc1O)[C@H]1c3ccc(O)c(O)c3OC[C@@]1(O)C2,"inconclusive: 55.6 µM [activator, partial curve, poor fit]"
2,Cc1cccc(OCCOc2cccc(C)c2)c1,inactive
3,[Na+],"inconclusive: 61.6 µM [activator, partial curve, poor fit]"
4,CS(=O)(=O)OCCCCOS(C)(=O)=O,inactive
5,CCC(=O)/C=C/C1C(C)=CCCC1(C)C (configuration not stated),active: 39 µM
6,CCCCC[C@H](O)/C=C/[C@H]1[C@H](O)CC(=O)[C@@H]1C/C=C\CCCC(=O)O,inactive
